The whole screen tested about 370,000 compounds, of which about 500 (0.14%) were called active. Inconclusive means that the source gave no clear call. Such entries were picked first, then a sample of the others. The call rests on the fitted dose curve; in most records, active means well fitted activation curve with a large enough effect; inconclusive means small, poorly fitted or top-dose-only effect; inactive means no such curve, though single readings can be large or run the other way. Potencies of inconclusive entries are left out as doubtful fits.
Experiment: qHTS of alpha-syn Inhibitors; further: nearly all actives have a fitted effect of over 65% in size; on growth rescue (activation): % of control where 0% means no effect
Settings: Yeast expressing alpha-synuclein, BacTiter-Glo, 24 h; Potency: growth rescue unless noted; growth rescue (activation): at 46.1 µM (top of the series) unless noted
How it was run: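 Readout is rescue of growth in alpha-synuclein-expressing yeast, so inhibitors of toxicity appear as activators. Growth after 24 hr at 30 deg C in galactose medium is quantified by luminescence.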
In the case of `Clc1ccc2c(c1)c1cc(Cl)ccc1n2CN1CCOCC1`, the “growth rescue (activation)” value is reported as inactive: -24.8%.
For `COc1cc(CNn2c(C)n[nH]c2=S)cc(Cl)c1OCc1ccccc1`, the Potency was inconclusive [activator, single point].
For `O=C(O)c1ccccc1OC(=O)C12CC3CC(CC(C3)C1)C2`, the Potency was inconclusive [activator, single point].
With `O=C(C(O)c1ccccc1)N1CCN(S(=O)(=O)c2ccc(C(F)(F)F)cc2)CC1` (centres undefined) the Potency was inconclusive [activator, single point].
In the case of `CCOC(=O)CCCc1ccc(/C(C)=N/NC(=S)NC)cc1`, the “growth rescue (activation)” value is reported as inactive: 6.1%.
In the case of `CCNC(=S)N(CCc1c(C)[nH]c2ccc(C)cc12)Cc1ccco1`, the Potency is reported as inconclusive [activator, single point].
With `Cc1ccc(CSC2=NCCN2S(=O)(=O)c2ccc(C)cc2)cc1` the Potency was inconclusive [activator, partial curve].
For `O=C(COC(=O)CNC(=O)c1cccc([N+](=O)[O-])c1)Nc1cccc(S(=O)(=O)N2CCCC2)c1`, the Potency was inconclusive [activator, single point].
With `CCC(NC(=O)CCc1c(C)c2cc3c(C)c(C)oc3cc2oc1=O)C(=O)N[C@@H](Cc1ccccc1)C(=O)O` (some centres undefined) the “growth rescue (activation)” value was inactive: 4.9%.
In the case of `CCc1ccc(OCC(=O)NNC(=O)c2cnccn2)c(Br)c1`, the Potency is reported as inconclusive [activator, single point].
In the case of `COc1ccc(N(CC(=O)Nc2ccc(S(=O)(=O)N3CCOCC3)cc2)S(C)(=O)=O)cc1OC`, the Potency is reported as inconclusive [activator, single point].
With `COC(=O)c1ccc(OCC(O)CN2C(=O)c3ccccc3C2=O)cc1` (centres undefined) the Potency was inconclusive [activator, single point].
For `CC1CC(C)CN(S(=O)(=O)c2ccc(C(=O)Nc3nnc(-c4cccs4)o3)cc2)C1` (centres undefined), the Potency was inconclusive [activator, single point].
For `Cc1cc(NC(=O)c2ccc(Br)o2)cc(-c2nc3ccccc3o2)c1O`, the “growth rescue (activation)” value was inactive: -0.712%.
For `CC(C)N(C(=O)c1ccc(C(=O)Nc2ccc([N+](=O)[O-])cc2)cc1)C(C)C`, the “growth rescue (activation)” value was inactive: -3.98%.
In the case of `COc1ccc(COc2ccccc2C(=O)NCc2ccccc2)cc1F`, the Potency is reported as inconclusive [activator, single point].
In the case of `CC(C)CNc1ncnc2c1ncn2[C@H]1CN(Cc2ccc(-c3ccccc3)cc2)C[C@@H](CO)O1`, the Potency is reported as inconclusive [activator, single point].
With `Cc1ccc(CC2CC(=O)N(c3nc4ccccc4n3C)C2=O)cc1` (centres undefined) the Potency was inconclusive [activator, partial curve].
For `CC(C)(C)c1cc(C(=O)Nc2cccnc2)cc(C(=O)Nc2cccnc2)c1`, the “growth rescue (activation)” value was inactive: -4.91%.
With `Cc1ccc(C(=O)OCC(=O)NC2CCCCCCC2)cc1C` the Potency was inconclusive [activator, single point].
In the case of `Oc1ccc(COCc2ccccc2)c2cccnc12`, the Potency is reported as inconclusive [activator, single point].
With `O=C1c2ccccc2C(=O)N1c1cccc(N2C(=O)c3ccccc3C2=O)n1` the “growth rescue (activation)” value was inactive: -1.5%.
With `CC(=O)Nc1cc2cc(NS(=O)(=O)c3ccc(Cl)cc3)ccc2oc1=O` the Potency was inconclusive [activator, single point].
In the case of `CN(c1ccccc1)c1nc2ccsc2c(=O)s1`, the “growth rescue (activation)” value is reported as inactive: 0.364%.
With `CC(C)ON([C@@H](C(=O)NO)C(C)C)S(=O)(=O)c1ccc(-c2ccccc2)cc1` the Potency was inconclusive [activator, single point].
With `Cc1cc(C)cc(-n2c(SCC(=O)N3CCCCC3)nc3c([nH]c4ccccc43)c2=O)c1` the Potency was inconclusive [activator, single point].
With `O=C(Nc1nnc(-c2ccc(F)cc2)o1)c1cc(Cl)sc1Cl` the growth rescue (activation) was inconclusive: -34.3% [activator].
In the case of `CCc1ccc2c(-c3cccc(Cl)c3)nc(=O)n(CC)c2n1`, the “growth rescue (activation)” value is reported as inactive: -0.508%.
For `O=C(CNS(=O)(=O)c1ccc(Br)s1)NCC1COc2ccccc2O1` (centres undefined), the Potency was inconclusive [activator, single point].
For `CCOC(=O)C1=CCN(S(=O)(=O)c2cccc(Cl)c2)C1c1ccc(F)cc1` (centres undefined), the Potency was inconclusive [activator, single point].
With `Clc1ccccc1-c1nn2c(-c3ccncc3)nnc2s1` the “growth rescue (activation)” value was inactive: -13.7%.
With `CN(c1ccccc1)c1nc(N2CCCC2)nc(-n2ccnc2)n1` the Potency was inconclusive [activator, single point].
For `COCCCNC(=O)C1CCCN(C(=O)c2cnn(-c3ccc(F)cc3)c2-n2cccc2)C1` (centres undefined), the Potency was inconclusive [activator, single point].
In the case of `OCCCc1nc2ccccc2n1CCCCOc1ccccc1`, the Potency is reported as inconclusive [activator, single point].
For `C[C@@H]1CN([C@H](C)CO)C(=O)c2cc(Br)cnc2O[C@H]1CN(C)C`, the Potency was inconclusive [activator, single point].
In the case of `c1ccc2c(NC3CCCC3)nnc(NC3CCCC3)c2c1`, the “growth rescue (activation)” value is reported as inactive: 0.681%.
For `COc1ccccc1-c1nc2ccccc2nc1-c1ccccc1OC`, the Potency was inconclusive [activator, single point].
With `O=C(O)c1ccc(C2CCCCC2)cn1` the Potency was inconclusive [activator, single point].
With `CCN1CCN(C(=O)c2cnn(-c3ccc(F)cc3)c2-n2cccc2)CC1` the “growth rescue (activation)” value was inactive: 1.53%.
With `O=C(c1ccc(C(F)(F)F)cc1)N1CCC(=O)N(C(COCc2ccccc2)Cc2ccccc2)CC1` (centres undefined) the Potency was inconclusive [activator, single point].
In the case of `Cc1cccc(Nc2nc(N)c([N+](=O)[O-])c(N3CCC(C)CC3)n2)c1`, the “growth rescue (activation)” value is reported as inactive: 4.81%.
With `O=C(C/C=N/OCc1c(Cl)cccc1Cl)c1ccc(Cl)cc1` the Potency was inconclusive [activator, single point].
For `O=C(CS(=O)c1ccccc1[N+](=O)[O-])Oc1ccc(Br)cc1` (centres undefined), the “growth rescue (activation)” value was inactive: -75.5%.
In the case of `O=C(NC1CC1)C1=C[C@H](c2ccc(Br)cc2)C[C@H](OCc2ccc(CO)cc2)O1`, the Potency is reported as inconclusive [activator, single point].

Reference: PubChem BioAssay AID652106 (National Center for Advancing Translational Sciences (NCATS), 2013)
Potency means the concentration at half of the fitted maximal effect; tags describe the fitted curve by direction and shape.
